# Hit rate of the full screen: of about 39,000 compounds, about 220 (0.56%) showed activity. This is one part of the list.
# Test system: Escherichia coli K-12 BW25113
# Experiment: relative growth (OD600 normalised to plate interquartile mean) (fraction); higher = less growth inhibition, active = 0.2 or less
# Conditions: 50 µM; LB; incubation time: overnight (16-24 h)
# 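Note: static incubation at 37 °C against the wild-type strain, values averaged over two biological replicates.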
row,Compound,relative growth
1,Cc1cc(C(=O)Nc2cccc3c2O[C@@H](CN(C)Cc2ccccc2)[C@@H](C)CN([C@H](C)CO)C3=O)n(C)n1,inactive: 0.967
2,COc1ccc2cc(C(C)C(=O)O)ccc2c1 (configuration not stated),inactive: 1.18
3,COc1ccc(C#Cc2cccc(-c3nc(C(=O)N4CCN(Cc5ccccc5)CC4)cc4c3[C@@H](CCO)N(S(=O)C(C)(C)C)C4)c2)cc1OC (some centres not stated),inactive: 1.04
4,COc1cccc(OC)c1C(=O)NC1C(=O)N2C1SC(C)(C)C2C(=O)[O-].[Na+] (configuration not stated),inactive: 1.01
5,Cc1ccc(S(=O)(=O)Nc2ccc3c(c2)C(=O)N([C@H](C)CO)C[C@@H](C)[C@@H](CN(C)Cc2ccc(Oc4ccccc4)cc2)O3)cc1,inactive: 1.01
6,CO[C@H]1CN(C)C(=O)c2cc(NC(=O)Nc3ccccc3F)ccc2OC[C@H](C)N(CCC(F)(F)F)C[C@H]1C,inactive: 1.02
7,C[C@H](CO)N1C[C@H](C)[C@@H](CN(C)S(=O)(=O)c2cccc(F)c2)Oc2ncc(-c3cccc(C(=O)N(C)C)c3)cc2C1=O,inactive: 0.999
8,Cc1noc(C)c1S(=O)(=O)Nc1ccc2c(c1)C(=O)N([C@H](C)CO)C[C@@H](C)[C@H](CN(C)Cc1ccc(C(=O)O)cc1)O2,inactive: 0.991
9,COc1ccc2c3c([nH]c2c1)[C@@H](CO)N(C[C@]13CCN(CC1)CC1CCCC1)C(=O)CN1CCOCC1,inactive: 0.995
10,CNC[C@@H]1OCCCC[C@H](C)Oc2ccc(NC(=O)c3ccncc3)cc2C(=O)N([C@H](C)CO)C[C@H]1C,inactive: 0.986
11,COc1ccc(NC(=O)Nc2ccc3c(c2)C(=O)N([C@H](C)CO)C[C@H](C)[C@@H](CN(C)S(=O)(=O)c2ccc(F)cc2)OCCCC[C@H](C)O3)cc1,inactive: 1.04
12,C[C@@H]1CCCCO[C@H](CN(C)S(C)(=O)=O)[C@@H](C)CN([C@@H](C)CO)C(=O)c2cc(NS(=O)(=O)c3ccccc3)ccc2O1,inactive: 0.995
13,O=S(=O)([O-])c1cc(I)c(O)c2ncccc12.[Na+],inactive: 0.58
14,NCc1cccc(N2CCCCC2)c1,inactive: 0.995
15,CCS(=O)(=O)N1C[C@]2(CN(C2)S(=O)(=O)c2cn(cn2)C)c2c([nH]c3cc(ccc23)OC)[C@@H]1CO,inactive: 0.985
16,COCC(=O)N(C)C[C@@H]1Oc2cc(C#C[C@@H](C)O)ccc2S(=O)(=O)N([C@H](C)CO)C[C@H]1C,inactive: 0.963
17,CC(C)CC#Cc1ccc2c(c1)O[C@H](CN(C)CC1CCOCC1)[C@H](C)CN([C@@H](C)CO)S2(=O)=O,inactive: 1.03
18,CCc1nn(C)c2c(=O)c(=O)c2n(C)[nH]1,inactive: 1.03
19,CC(C)NC(=O)N(C)C[C@H]1Oc2ccc(NC(=O)C3CCCCC3)cc2C(=O)N([C@H](C)CO)C[C@@H]1C,inactive: 0.985
20,C[C@H](CO)N1C[C@H](C)[C@@H](CN(C)Cc2ccc(Cl)c(Cl)c2)Oc2ccc(NC(=O)Cc3ccccc3)cc2CC1=O,inactive: 0.961
21,C[C@@H]1CN([C@@H](C)CO)C(=O)c2cc(NC(=O)Nc3ccc(C(F)(F)F)cc3)ccc2O[C@@H](C)CCCCO[C@H]1CN(C)C,inactive: 0.999

row,Compound,relative growth
1,COc1ccc(CN(C)C[C@H]2OCCCC[C@H](C)Oc3ccc(NS(=O)(=O)c4ccc(Cl)cc4)cc3C(=O)N([C@H](C)CO)C[C@H]2C)cc1,inactive: 0.982
2,COc1ccc2[nH]c(=O)[nH]c(=O)c2c1,inactive: 0.826
3,C[C@@H]1CCCCO[C@@H](CN(C)C(=O)Nc2cccc3ccccc23)[C@@H](C)CN([C@H](C)CO)C(=O)c2cc(NS(C)(=O)=O)ccc2O1,inactive: 1
4,Cc1noc(C)c1S(=O)(=O)N(C)C[C@@H]1Oc2ccc(NS(C)(=O)=O)cc2C(=O)N([C@H](C)CO)C[C@@H]1C,inactive: 0.998
5,Cc1ccc(S(=O)(=O)Nc2ccc3c(c2)CC(=O)N([C@@H](C)CO)C[C@@H](C)[C@H](CN(C)Cc2ccc(Cl)c(Cl)c2)O3)cc1,inactive: 0.974
6,Cc1ccccc1NC(=O)C[C@H]1NCCNC1=O,inactive: 0.995
7,COCC#Cc1ccc2c(c1)O[C@H](CN(C)C(=O)c1ccccc1F)[C@H](C)CN([C@@H](C)CO)S2(=O)=O,inactive: 1.03
8,O=C(C[C@@H]1C=C[C@@H](NS(=O)(=O)c2ccccc2F)[C@H](CO)O1)NCCCN1CCOCC1,inactive: 1.02
9,C[C@@H]1CN([C@@H](C)CO)C(=O)c2ccccc2-c2ccccc2CO[C@@H]1CN(C)C(=O)Nc1cccc(F)c1,inactive: 0.977
10,Cc1ccc(S(=O)(=O)Nc2cccc3c2O[C@H](CN(C)C(=O)NC(C)C)[C@@H](C)CN([C@H](C)CO)C3=O)cc1,inactive: 0.99
11,CC#CCOC(=O)C1=CCCN(C)C1,inactive: 1.02
12,C[C@@H]1CN([C@@H](C)CO)C(=O)c2cc(NC(=O)NC3CCCCC3)ccc2O[C@H]1CN(C)S(=O)(=O)c1cn(C)cn1,inactive: 1.01
13,C[C@@H]1CN([C@H](C)CO)C(=O)c2cc(-c3ccncc3)cnc2O[C@H]1CN(C)S(=O)(=O)c1ccccc1,inactive: 1.04
14,C[C@@H]1CCCCO[C@H](CN(C)C(=O)NC2CCCCC2)[C@@H](C)CN([C@H](C)CO)C(=O)c2cc(NS(=O)(=O)c3ccc(Cl)cc3)ccc2O1,inactive: 1
15,C[C@H](CO)N1C[C@H](C)[C@H](CN(C)Cc2ccc(C(=O)O)cc2)Oc2ccc(NC(=O)CCN3CCOCC3)cc2C1=O,inactive: 0.991
16,CN(C)C(=O)C[C@@H]1CC[C@@H]2[C@@H](COc3ccc(NS(=O)(=O)c4cccc(F)c4)cc3C(=O)N2C)O1,inactive: 1.04
17,C[C@@H]1CN([C@H](C)CO)C(=O)c2cccc(NC(=O)Nc3ccc4c(c3)OCO4)c2O[C@H]1CN(C)S(=O)(=O)c1cn(C)cn1,inactive: 0.992
18,COc1ccc(S(=O)(=O)Nc2ccc3c(c2)C(=O)N([C@@H](C)CO)C[C@H](C)[C@H](CN(C)C(=O)C2CCCCC2)OCCCC[C@@H](C)O3)cc1,inactive: 1.01
19,C[C@@H]1CCCCO[C@H](CN(C)S(=O)(=O)c2ccc(F)cc2)[C@H](C)CN([C@@H](C)CO)C(=O)c2cc(NS(=O)(=O)c3ccc(Cl)cc3)ccc2O1,inactive: 1.04
20,Cc1ccc(S(=O)(=O)Nc2ccc3c(c2)C(=O)N([C@@H](C)CO)C[C@@H](C)[C@@H](CN(C)S(=O)(=O)c2ccccc2)O3)cc1,inactive: 1.04
21,C=CCN(C(=O)[C@H]1N(CCOCCO)C(=O)[C@H]2[C@H](C(=O)O)[C@@H]3C=C[C@@]21O3)c1ccc(OC)cc1,inactive: 1.03

row,Compound,relative growth
1,CCOC(=O)N1CCN(C(=O)CN(C)S(=O)(=O)c2ccc3c(c2)c(=O)n(C)c(=O)n3C)CC1,inactive: 0.999
2,COc1ccc(CN(C)C[C@@H]2OCCCC[C@@H](C)Oc3ccc(NC(=O)C4CCCCC4)cc3C(=O)N([C@@H](C)CO)C[C@@H]2C)cc1,inactive: 1.01
3,C[C@H]1CN([C@@H](C)CO)C(=O)c2cc(NC(=O)CCCN(C)C)ccc2O[C@@H]1CN(C)C(=O)Nc1ccc2c(c1)OCO2,inactive: 0.994
4,CC(C)N1C[C@H](C)[C@@H](CN(C)Cc2ccc(Cl)cc2)Oc2c(C(=O)Nc3ccncc3)cccc2C1=O,inactive: 0.971
5,C[C@@H]1CCCCO[C@H](CN(C)Cc2ccccc2)[C@H](C)CN([C@H](C)CO)C(=O)c2cc(NS(=O)(=O)c3ccc(Cl)cc3)ccc2O1,inactive: 0.984
6,NS(=O)(=O)c1ccc2c(c1)OCCO2,inactive: 0.979
7,CN(C)CC(=O)N[C@H]1CC[C@@H](CC(=O)O)O[C@@H]1CO,inactive: 0.996
8,N#Cc1ccccc1C#CCO,inactive: 0.965
9,C[C@H]1CN([C@@H](C)CO)C(=O)c2cccc(NC(=O)c3cnccn3)c2O[C@@H]1CN(C)S(=O)(=O)c1ccc(F)cc1,inactive: 0.996
10,C[C@@H]1CCCCO[C@H](CN(C)CC2CCCCC2)[C@H](C)CN([C@@H](C)CO)C(=O)c2cc(NC(=O)Nc3ccccc3)ccc2O1,inactive: 0.963
11,C[C@@H]1CN([C@H](C)CO)C(=O)c2cc(NC(=O)C3CC3)ccc2O[C@@H]1CN(C)C(=O)NC1CCCCC1,inactive: 0.971
12,C[C@@H]1CN([C@H](C)CO)C(=O)Cc2cc(NC(=O)Cn3cnnn3)ccc2O[C@@H]1CN(C)S(=O)(=O)c1ccccc1,inactive: 0.975
13,C[C@H](CO)N1C[C@H](C)[C@H](CN(C)Cc2ccc(C(F)(F)F)cc2)Oc2c(NC(=O)Nc3cccc4ccccc34)cccc2C1=O,inactive: 1
14,CN1C(=O)c2cc(NC(=O)C3CCOCC3)ccc2OC[C@H]2O[C@@H](CC(=O)NCc3ccc4c(c3)OCO4)CC[C@@H]21,inactive: 0.993
15,COc1ccc(NC(=O)N(C)C[C@@H]2OCCCC[C@H](C)Oc3ccc(NC(=O)C4CCCCC4)cc3C(=O)N([C@@H](C)CO)C[C@H]2C)cc1,inactive: 0.978
16,Nc1nc(Cl)nc2c1ncn2[C@H]1C[C@H](O)[C@@H](CO)O1,inactive: 0.971
17,COc1ccc(S(=O)(=O)N(C)C[C@@H]2Oc3ccc(NC(=O)C4CC4)cc3C(=O)N([C@H](C)CO)C[C@@H]2C)cc1,inactive: 1
18,COCC(=O)N(C)C[C@@H]1Oc2cc(C#C[C@H](C)O)ccc2S(=O)(=O)N([C@@H](C)CO)C[C@@H]1C,inactive: 1
19,C[C@H]1CN([C@@H](C)CO)C(=O)c2cc(-c3cccc(C(=O)N(C)C)c3)cnc2O[C@H]1CN(C)S(=O)(=O)c1ccc(F)cc1,inactive: 0.996
20,O=C(C[C@@H]1C[C@H]2c3cc(NC(=O)c4cccnc4)ccc3O[C@H]2[C@H](CO)O1)NCc1cc(F)ccc1F,inactive: 0.992

# From the supplement of paper PMC9446081
